Laboratory results published in ChEMBL document CHEMBL4888484, “Replenishing the malaria drug discovery pipeline: Screening and hit evaluation of the MMV Hit Generation Library 1 (HGL1) against asexual blood stage Plasmodium falciparum ,using a nano luciferase reporter read-out” (2022).
The whole screen tested about 150,000 compounds, of which about 540 (0.36%) showed an effect of 50% or more. This is one part of the list.

Each compound was assayed on Plasmodium falciparum (assay: Primary screen in NF54 nanoGlo assay, in single point, at 2uM, 72h; a lower Z score goes with more inhibition). Details: timepoint 72 hour.
Type: functional, Erythrocyte

Row | SMILES | % Inhibition | Z score
1 | CC1CCC(c2noc(C3(c4cccc(OC(F)(F)F)c4)CCC3)n2)O1 (stereo unspecified) | -19% | 2.17
2 | CC(c1ccccc1)N1C(=O)C2C3CC(c4ccccc4)C(C3)C2C1=O (stereo unspecified) | 9% | -1.18
3 | O=c1[nH]c(NC2CCCC2)nc2nccc(-c3ccccc3Cl)c12 | -11% | 1.56
4 | Cc1ccc(-c2c[nH]c([C@@H]3CNC(=O)C3)n2)cc1C | -3% | 0.34
5 | O=C(c1cnccn1)N1CC[C@H](S(=O)(=O)c2ccccc2)C1 | -18% | 3.1
6 | Fc1ccccc1N1CCN(c2ncnc3c2nc2n3CCCCC2)CC1 | -9% | 1.29
7 | O=C1[C@@H]2CCCN2C(=O)N1Cc1ccc(F)cc1 | -4% | 0.36
8 | Cc1ccn(CC(=O)N2CC(c3ccccc3C)OCC2C)c(=O)c1 (stereo unspecified) | -9% | 0.77
9 | Cc1nc(C(=O)NCCN(C)C2CCCCC2)c(C)o1 | -6% | 1.13
10 | O=C(NC[C@H](O)C1CC1)Nc1ccc(Br)cn1 | -15% | 2.17
11 | Cc1nn(-c2ccccc2)c(C)c1C(=O)NCc1cccnc1N1CCN(C)CC1 | 3% | -0.37
12 | O=C(NC1CCN(c2nnc3ccccn23)CC1)c1ccoc1 | 34% | -3.89
13 | O=C1C[C@H](Nc2ccc3c(c2)OCCCO3)C(=O)N1CCc1ccccc1F | 1% | -0.13
14 | Cc1cc(NC(=O)N2CC3(CC=CC3)[C@@H]2C(C)C)cc(C(N)=O)c1 | -2% | 0.22
15 | O=S1(=O)NC(c2ccccc2)(c2ccccc2)c2ccccc21 | 36% | -4.67
16 | CNc1snc(C)c1C(=O)OCc1nnc(-c2ccccc2)o1 | -31% | 3.63
17 | CC(NC(=O)c1coc(CN(Cc2cccc(F)c2)C(C)c2ccccc2)n1)c1ccccc1 (stereo unspecified) | -1% | 0.23
18 | O=C(Nc1ccccc1)N1CCO[C@@H](CN2CCCN(C(=O)c3ccc4ccccc4c3)CC2)C1 | -4% | 0.69
19 | CNC(=O)[C@H]1CC[C@H](CNc2nc(C)ncc2C)CC1 | -6% | 1.1
20 | O=C1NC[C@@H]2CCC[C@@H](CCOc3ccccc3C(=O)N3CCN(CC4CCCCC4)C[C@@H]13)O2 | -2% | 0.32
21 | Cc1cc(C(=O)N2CC(O)C2)c(C)n1C1CC1 | -10% | 1.97

Row | SMILES | % Inhibition | Z score
22 | C[C@H]1CCN(C(=O)Nc2ccc(OCc3ccccc3)nc2)CCO1 | 2% | -0.32
23 | Cc1cccc([C@H]2C(=O)NCCN2C(=O)Cc2nc(C)sc2C)c1 | -9% | 1.71
24 | Cc1c(Cl)cccc1S(=O)(=O)N1CCN(c2cccnc2)C(=O)C1 | 32% | -0.65
25 | O=C(C[C@@]1(O)C(=O)N(CN2CCOCC2)c2ccccc21)c1ccccc1O | -10% | 1.08
26 | CNS(=O)(=O)c1ccc(N[C@H]2CCC[C@H]2Oc2cc(F)cc(F)c2)c(F)c1 | -3% | 0.51
27 | CN(Cc1ncc[nH]1)Cc1ccc(Cl)s1 | 8% | -0.91
28 | O=C(NCc1cccc(F)c1)N1C[C@H]2CC[C@@H](C1)N(CC1CCC1)C2=O | -9% | 1.7
29 | CCOCCC(=O)Nc1cc(C)cc(C)c1 | -10% | 1.88
30 | C[C@@H](Cc1ccc(Br)cc1F)NC(=O)C1(O)CCC1 | -11% | 1.14
31 | CCn1c(=O)[nH]c2c(c1=O)C(C)(C)Cc1ccccc1-2 | -14% | 1.55
32 | CN(CCC[C@H]1CCCO1)c1nc(NC2CC2)nc2c1CCNCC2 | 5% | -0.65
33 | O=C(NC1CCCCC1)c1cn(-c2ccc(S(=O)(=O)N3CCCC3)cn2)cn1 | -23% | 3.68
34 | CC(C)n1cc(C(=O)N[C@H]2COCC2(C)C)cn1 | 0% | 0.01
35 | O=C(Cn1ccc2ccccc21)N1C2C=CCC1CC2 (stereo unspecified) | 0% | 0.01
36 | CCN(C(=O)NCCc1cccc(C(N)=O)c1)[C@H]1CCN(Cc2ccccc2)C1 | 0% | -0.1
37 | CCCc1cn(C2CCN(C(=O)c3cc4c(nc3OC)CCC4)CC2)nn1 | -8% | 1.3
38 | CC1(C)CC(=O)N(Cc2cn3ccccc3n2)C1=O | 33% | -3.77
39 | CN1CCCC(NC(=O)NCC(C)(C)C2COCC23OCCO3)C1=O (stereo unspecified) | -2% | 0.34
40 | COc1ccc(CN2C(=O)CN(C3CCCCCC3)C(=O)[C@@H]2c2ccc(Cl)cc2)cc1 | -11% | 2.04
41 | CNC(=O)C(=O)Nc1ccc(C)cc1C | -11% | 1.44
42 | Clc1ccccc1OCCn1nc(C2CC2)nc1C1CC1 | 2% | -0.37

Row | SMILES | % Inhibition | Z score
43 | CCn1c(C)nnc1Cn1ccc2ccn(Cc3ccccc3)c2c1=O | -12% | 1.41
44 | CCCN(CC)c1ccc(C(=O)N[C@H]2CCOC(C)(C)C2)cn1 | -19% | 3.56
45 | NC(=O)C1CCN(C2CN(C(=O)NC(c3ccccc3)c3ccccc3)C2)CC1 | -4% | 0.53
46 | CN=C(NCc1ccccc1N(C)CCOC)N(C)C | -10% | 1.23
47 | CNC(=O)C1CCCCC1NC(=O)NCC(C)c1nc(C)cs1 (stereo unspecified) | -4% | 0.49
48 | CC[C@H]1C=CCN1C(=O)c1ccc(S(C)(=O)=O)cc1 | 24% | -3.27
49 | C[C@H](NC(=O)c1ccccc1Cl)C(=O)NCCC(c1ccccc1)c1ccccc1 | 4% | -0.7
50 | O=C1CCCc2cc(NC(=O)N[C@H]3CC[C@@H](C(=O)N4CCCCC4)C3)ccc2N1 | -17% | 2.42
51 | Cc1ccnc(Oc2ccc(-c3ccccc3)cc2)n1 | -3% | 0.34
52 | CCNc1nc(C(=O)NC[C@H]2CCCCN2CCO)cs1 | -9% | 1.75
53 | Cc1nn(C(C)C)c(C)c1Nc1cnc2ccccc2n1 | -10% | 1.74
54 | COc1cc2c(cc1OC)CN(C(=O)c1ccc(S(=O)(=O)N[C@H]3CCS(=O)(=O)C3)cc1)CC2 | -16% | 2.34
55 | C=CC[C@@H]1NC2(CCCCC2)Cc2cc(OC)c(OC)cc21 | 8% | -0.7
56 | CC(=O)c1ccc(OC23CCCN(CC2)C3)cc1C (stereo unspecified) | 0% | 0.06
57 | Cc1ccc(Nc2cc(N3CCN(C(=O)COc4ccc(Cl)c(C)c4)CC3)ncn2)cc1 | -8% | 1.33
58 | Cc1cn2nc(N3CCN([C@H]4CCS(=O)(=O)C4)CC3)sc2n1 | 6% | -1.35
59 | COc1cccc(NC(=O)c2ccc3nc(C(C)C)oc3c2)c1 | 4% | -0.67
60 | COc1ccc(CCC(=O)NC2CCN(c3ncnc4c3CCCC4)CC2)cc1 | -17% | 2.19
61 | O=C([C@@H]1CC[C@H](CN2CCOCC2)O1)N1C[C@@H](F)C[C@H]1CO | -3% | 0.33
62 | CC(C)c1nc(CCNC(=O)CCCc2ccc(F)cc2)no1 | -7% | 0.89
63 | Cc1cccc(C(=O)N=C(N)Nc2nc3ccccc3s2)c1 | -8% | 0.72

Row | SMILES | % Inhibition | Z score
64 | CN(C)c1ccccc1NC(=O)Cc1cnn(-c2ccccc2)c1 | -8% | 0.69
65 | O=C(CC1CC1)NC1CCC(F)(F)CC1 | -9% | 1.45
66 | Cc1nn(CCC(=O)N2C[C@@H]3CC[C@H]2CN(S(C)(=O)=O)C3)c(C)c1C | -6% | 1.09
67 | COc1ccc2cc1Oc1cccc(c1)CO[C@H]1CN(C(=O)c3cnn(C)c3)C[C@@H]1NC(=O)CN(C)C2 | 4% | -0.6
68 | CC(C)CNC(=O)C1C(c2ccc(NC(=O)c3cccs3)cc2)OC(=O)N1Cc1ccc(F)cc1 (stereo unspecified) | 9% | -1.3
69 | CC(C)n1ncc(C2(c3cnn(C(C)C)c3NC(=Nc3ccccc3)N(C)C)C(=O)Nc3ccccc32)c1NC(=Nc1ccccc1)N(C)C (stereo unspecified) | -5% | 0.84
70 | N#Cc1ccc(CN2C[C@@H]3C[C@H]2C(=O)NC[C@@H]2CCC[C@@H](CCOc4ccccc4C(=O)N3)O2)cc1 | 28% | -3.13
71 | CCOC(=O)c1c(C)nc(C)c(C(=O)OCC)c1-c1ccccn1 | -32% | 3.72
72 | CC(C)N1CCN(c2nc(-c3ccc(Cl)cc3)c3c(N)n(C)nc3n2)CC1 | -4% | 0.48
73 | CC(C)n1ccnc1CNc1ccccc1-n1nccn1 | -17% | 1.81
74 | COC(=O)N1CC(NCc2c(C)nn(C(C)(C)C)c2C)C1 | -9% | 0.93
75 | CN(Cc1nnnn1C)C(=O)C1(C)CC2CCC1O2 (stereo unspecified) | 0% | -0.03
76 | CCOC(=O)CCC(=O)Nc1cc(Cl)ccc1OC[C@H]1CCCO1 | 11% | -1.8
77 | N#Cc1ccc(-c2nc(-c3ccc(S(=O)(=O)N4CCCCC4)cc3)no2)cc1 | 2% | -0.28
78 | O=C(O)C(CNC(=O)C1C2Cc3c(Cl)cccc3C21)CC1CC1 (stereo unspecified) | -9% | 1.84
79 | Cn1cc(-c2cc(CN3C[C@H](F)C[C@H]3C(N)=O)on2)cn1 | 5% | -0.67
80 | O=C([C@H]1CC(=O)N(c2ccc(F)cc2)C1)N1CCCC1 | -4% | 0.4
81 | Cc1noc(C)c1CNC(C)CC(O)c1ccc(F)cc1 (stereo unspecified) | -4% | 0.56
82 | COC[C@H](C)NC(=O)Cn1ncc(=O)c2ccccc21 | 2% | -0.28
83 | COc1cc(-c2cn(CCS(=O)(=O)N3CCCC3)nn2)cc2c1OCO2 | 2% | -0.37
